Measured values taken from the supplement of paper PMC3334620.
In all, about 33,000 sequences were measured (“E-score (-0.5 to 0.5)”: median about -0.035, highest 2% from about 0.34 on). The list shows a part of the results.

The sequences below were run against T1, Mot3 (UniProt P54785) (assay: PBM E-score (8-mer binding enrichment) (E-score (-0.5 to 0.5)); higher = stronger / more preferred TF binding; most listed sequences are background and not binding sites). Settings: protein concentration: 200 nM; construct: GST-full length.
T1 sequence: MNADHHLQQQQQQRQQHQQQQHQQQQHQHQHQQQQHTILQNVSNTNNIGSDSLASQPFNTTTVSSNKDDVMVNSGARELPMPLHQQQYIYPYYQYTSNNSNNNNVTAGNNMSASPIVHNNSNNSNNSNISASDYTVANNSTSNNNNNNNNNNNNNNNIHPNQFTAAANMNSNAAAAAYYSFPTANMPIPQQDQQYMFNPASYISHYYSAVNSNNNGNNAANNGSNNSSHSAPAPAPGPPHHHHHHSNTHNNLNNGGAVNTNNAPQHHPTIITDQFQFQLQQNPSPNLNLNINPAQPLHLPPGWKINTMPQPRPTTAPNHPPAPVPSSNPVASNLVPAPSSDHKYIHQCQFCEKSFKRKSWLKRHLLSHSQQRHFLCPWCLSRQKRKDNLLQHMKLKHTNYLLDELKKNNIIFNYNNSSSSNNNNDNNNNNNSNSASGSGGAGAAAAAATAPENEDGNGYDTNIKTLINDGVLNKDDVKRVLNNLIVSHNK
Method in brief: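 For each ungapped eight-base word taken together with its reverse complement, the Universal PBM Analysis Suite assigned an E-score. Binding data came from GST-tagged yeast transcription factors, applied at about 100-200 nM, on universal all-10-mer Agilent arrays made double-stranded by primer extension. Fluorescent anti-GST marked bound protein, and scans were normalised with masliner.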

Sequence	PBM E-score
CGCATCAG	-0.0383
CCGCAACA	0.132
ACGAAGCT	-0.0365
AGAGCCGC	-0.261
ACATTGGA	-0.0925
ATGTAGCC	-0.0965
ATTTAATG	0.166
CCAGCAAG	-0.162
GCCAACAA	-0.0223
GGAGGGGA	-0.285
TGCGGTAA	0.00116
CCTATGCC	-0.0577
CACGGCCA	-0.152
CGGTCACA	-0.245
AATAGTGT	0.026
ACAAAACG	0.159
GAGGTAGC	-0.202
GACTAACA	0.0937
CCTCTGTA	0.108
AGCAGACC	-0.181
AAGTCGTG	-0.0266
ACCGGTCC	-0.214
CGTGCTGA	0.0651
AGCCTTAC	-0.0126
TACCCCCA	-0.0647

Sequence	PBM E-score
CCGAGGGC	-0.22
GATCCTGA	-0.11
CAGCATCC	-0.162
GCCGGGAA	-0.195
AAACGACG	0.193
AACCTAGG	0.0596
CTGGAGGA	-0.0115
CTTGAATC	0.0305
CCGACGAG	-0.0302
CGGGGCAG	-0.186
TCATAGCA	-0.00451
CACCCAAG	-0.117
GAGAACTA	0.00221
CAAGATCC	-0.194
GTACAGAA	0.141
CTCACGCC	-0.258
AACCCGCC	-0.129
GGGAGACC	-0.295
GTGATGTA	0.296
GTCGCCCA	-0.253
ATATAGGG	-0.153
CACACTGA	-0.0501
ACACGTAA	0.316
TGCCTTAA	0.471
CTACTACC	0.0323

Sequence	PBM E-score
GGTTAAAA	0.194
GCAAGGCC	-0.0626
CGCTAACG	-0.0607
TTCTCCAA	-0.0743
AATTGTTC	0.11
TAGTCTAA	-0.0848
CCGAGCGC	-0.18
ATATCCAA	0.00577
CCTAAACA	0.215
AGATGTGG	-0.0703
AGCATGAC	-0.12
CTGAGTCC	-0.149
CTTGTCAC	-0.197
CGTGGGTA	-0.118
GAAAGGGC	-0.0854
AAGACAAG	0.117
GCAAGTAC	0.158
AATCGATC	-0.051
CCGGACTC	-0.0654
AGCTGATG	0.0117
CCGAAGCC	-0.279
CAGTGCGA	-0.0117
CAGGCTTC	0.0678
AATCCCCT	-0.0903
AATTAGTC	0.0895

Sequence	PBM E-score
GCCCAACA	0.146
CAGTACAG	-0.00717
ACAGTAGA	0.146
AGGGTACG	0.117
ATCCTAGA	-0.14
ACGTCCCC	-0.0914
AGTGTGAC	-0.0273
GGCGCGGA	-0.136
ATAGTCGG	-0.0977
CAGTAGGG	-0.00292
AATGGAAA	-0.154
CCGGGGAA	-0.122
CGCGAGCC	-0.129
CGGCTCAC	-0.251
GCCGGTCC	-0.432
GCAGAGAA	-0.0709
AAAGGATA	-0.0444
AGCGGTAC	-0.0746
ATTGAGAG	-0.162
ACTGGTCA	0.047
GATTATAA	-0.0495
GTCTCAAC	-0.0401
AGTCCGAT	-0.158
AATCACAA	0.0715
AAGGGCAT	-0.125

Sequence	PBM E-score
AGCGTCCC	-0.119
ATGCCAAT	-0.0774
GAATAAAC	0.0622
GTAGGGGA	-0.241
ATCACCTC	0.0432
GCGTGGTA	0.0907
ACGAGGAA	0.164
ACGCGACT	0.153
ACGCGACA	0.135
GCACTTTA	0.0941
ATCTCGGG	-0.184
GCAGACCA	-0.251
ACTCCTGC	-0.119
AAGCAGAG	0.0421
ATCGATAG	0.0807
GTTTACCA	0.149
CATCTTAG	0.0012
CTTGTTAC	0.158
ATGGTTAA	0.133
GCATCCAA	-0.305
ATGCGACC	-0.122
CGACTACC	-0.115
AAGGCCTT	-0.122
CAATACGG	-0.103
CCGTCGCA	-0.251

Sequence	PBM E-score
ATTGGAGG	-0.295
ACTAGCTC	0.051
GCGCGTCA	0.0156
CCGTCTCA	0.0425
AATTTATA	0.189
CATGAAGG	0.249
AGCAAGTG	-0.153
CATTCGGG	-0.086
GAGCGGAC	-0.329
TATATCGA	0.0267
ATTCACTA	0.124
GTGTACCA	0.221
CCAGGACC	-0.277
CTCGCGTA	0.174
GATGTGGC	-0.119
AGGTAGAC	-0.0113
ATAGGGTC	-0.0286
GACTTCTC	0.0145
CATTGTCA	0.0408
CGAAAGCA	0.0401
TGCACCCA	-0.116
CAACGTGG	0.0344
CCAACCCC	0.0307
ACCATTAC	0.168
CCCTGAGA	-0.294

Sequence	PBM E-score
ATCCATGC	0.0613
CCAACGTA	0.0662
GGACAACC	-0.108
CGAGGCCC	-0.183
CTAACGAC	-0.0131
AAGATCCG	-0.156
GGTTTAGA	-0.146
ACTGTGCC	0.265
ATCTGGGG	-0.276
AAAGCCCT	-0.155
GCGTCCCA	-0.196
TAGTATAA	0.117
CGTAAGAC	-0.101
AACCTCCG	-0.0545
TGAAACAA	0.123
TACGCAGA	0.236
CTAGATAA	-0.0624
ATCCTCTG	-0.271
AATTGCAT	0.064
CCGCGCTA	-0.0745
ATATCAAT	0.249
ACATCTGA	-0.191
GCGATACA	0.0872
ATGGCCCC	-0.199
CGAAGTAA	0.174

Sequence	PBM E-score
ATACGGCA	-0.00914
AACACTAG	0.0665
ACGTGTAT	0.356
AAATTTCC	0.238
AGTAGGAT	0.0448
AGCTGCAT	0.0096
CACCTACG	0.116
ATACTAGA	0.00036
TTCCAAAA	0.0722
AACGACTG	-0.211
CGCGGGTA	0.0205
ATGAGTTA	0.0514
AGGGATGA	-0.127
CAGAATTA	-0.0203
CAGTGGCA	-0.158
GTTCCATA	-0.157
CAGCAAGG	-0.017
GAGGAAGA	-0.167
ACAAATGT	0.255
TAGTTCGA	-0.094
CTATAAAC	0.0488
CTACGCCC	-0.131
AACGGGAT	-0.147
CGTTTTAC	0.213
AGTAGGGC	-0.043

Sequence	PBM E-score
CCACCAGG	-0.141
ACCCTTTG	-0.147
ATGGTAGG	0.0523
GCGCGAAC	-0.147
ATTGTGCC	0.152
AGTGGTAG	-0.184
CAAAGTCG	0.0321
CTTAGGGC	-0.083
ACCGAAAC	-0.151
TCCAACGA	-0.066
CAGTACGA	-0.11
CTAGATTA	-0.00804
AATAATAC	0.254
CCTGTCTC	-0.191
AAGTGCAC	-0.0911
AGATCATG	-0.0646
ACGCCGGG	-0.276
ACCCAGCT	-0.186
CAATGTAG	0.234
GACGTAGA	-0.0424
AGGTCACC	0.0194
AGCCAGAG	-0.242
CTCCGTAC	-0.195
CGATAAAG	0.0771
AGTCATGA	-0.159

Sequence	PBM E-score
ACACGCTA	0.356
GCGACTTA	-0.135
ACGTCGCC	-0.00307
ACCGGGGG	-0.265
GTCCTAAA	0.125
ATTAAATC	0.032
ATTGATTA	0.134
GTATAATA	0.223
GTGAGTAA	0.238
CGTGTTAC	0.308
AGGGCATA	-0.142
GTGTACAC	0.344
TACAGGCA	0.484
CATATCGC	-0.144
GGGGGAAC	-0.175
ACCTGCAC	0.0676
AAACCACG	-0.0678
CCCGAGAC	-0.284
GAAATTGC	0.147
GGTTACAC	0.225
ACACTCGC	-0.104
ACAGAGAC	-0.0733
CGCTAAGC	-0.0774
AGTCATTA	0.0125
AGGACTGA	-0.224

Sequence	PBM E-score
GCCAATCA	-0.23
GAGGCAGC	-0.0844
GAGTTGGA	-0.217
GACATCCA	-0.0449
GTAGGTCA	-0.0891
CGGTGGTA	0.0303
AATGCGGC	-0.00737
CGTGATAC	-0.0673
GGATCTCA	-0.274
GTATGGGA	-0.0874
ATTTGACG	0.0744
GAACCCAA	-0.14
ATCAGATG	-0.0793
GCAACTCC	-0.052
CCTCCCTC	-0.107
TAAATGAA	0.0305
GCTCTGAC	-0.179
CCGGAACA	-0.0722
ACCACATG	0.0906
GGCCCAAC	-0.144
CTGCCAAC	-0.0159
ACTTAGGC	0.278
ACCCCGTC	-0.286
AACCATGC	-0.0839
AGTTAAAC	0.171

Sequence	PBM E-score
ACGGCCAG	-0.256
AAAGTCAA	-0.0164
CGGCCCCG	-0.384
AGGGTTAC	-0.0583
AAATCAAT	0.245
AACAAGAT	0.17
CAACCGCG	0.0944
CGATGCAC	-0.223
AGTCCAGG	-0.121
CTATCTAA	0.0476
CCCGGAGG	-0.26
CACTCTAG	-0.145
GATCACAC	0.0429
GCTGTCAC	-0.0479
CGGTTCCA	-0.355
AGGGTTTC	0.0136
CCTTATTC	-0.0101
ACAACGTA	0.182
ACACCGCC	-0.095
AGAACGGG	-0.0837
CTGAAAAA	0.0759
CTCGACTC	-0.06
ACCTACAA	0.277
GAAATTCC	-0.0993
ATGGTAAG	-0.094

Sequence	PBM E-score
CAAACATC	0.205
AAATAGTT	0.0934
AACGCGCC	0.106
TATCAGGA	0.103
ACAGGTAC	0.423
CCCATTGC	0.0234
GCGGACGC	-0.24
ACAGTTCA	0.025
CATTCTGA	-0.0972
GGATGGAC	-0.231
GTCTGTAA	0.149
GAACGATC	0.189
TCACTGGA	-0.0505
CTACCCGC	-0.194
CCTCCCGA	-0.181
CGCCTCCA	-0.0882
ATCACTGC	-0.141
GCGCTCAA	-0.193
CACCCTAA	0.0169
AAGGCCCA	-0.0452
AGATCGTG	0.114
CACGCATG	0.212
CCTGGTCA	-0.0659
AATCATCT	0.0152
ACCTAGTA	0.211

Sequence	PBM E-score
AAGATAAG	0.12
ACCTATCA	0.108
CACGGCGG	-0.0365
CTATACGA	0.0128
ATATGCTC	-0.11
ATACGCAT	0.18
TTCTGCAA	-0.0221
TCTGCCAA	-0.0634
GGCCTTAA	0.0792
AAGCAGGA	-0.0405
CCATATGG	-0.269
ATGTGACC	-0.0699
ATGAGAGA	-0.0279
CTGAGTCA	-0.0693
AACCAAGT	0.0917
AGACGATA	-0.12
AATGCGGA	-0.119
TACCGGTA	-0.021
GGGCTGTA	0.0198
